Whole data set: some 3,600 compounds, median “viability index relative to DMSO control” near 0.81, cut for the lowest 2% near 0.13. The list shows a part of the results.
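Note: 384-well serum-free SaLSSA: MitoTracker Red CMXRos staining with saponin lysis, high-content imaging, treated-well particle count divided by plate-mean count of DMSO wells.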

This assay deals with Plasmodium falciparum NF54 stage V gametocytes. Briefly: viability index relative to DMSO control (fraction); higher = less gametocyte killing. As to conditions: 1.25 µM, incubation time: 72 h.
`Cc1cccc(NC(=O)C2C3C=CC4(O3)C2C(=O)N(CC2COc3ccccc3O2)C4C(=O)NC2CCCC(C)C2C)c1` (centres undefined) displayed a viability index of 1.33. Consider `O=C(O)CCCCCNc1ncnc2sc3c(c12)CCCC3`, for which the viability index turned out to be 0.703.

The compound `COc1ccc(-c2cnnc(NN=Cc3ccc([N+](=O)[O-])o3)n2)cc1` came in with a viability index of 0.0154.

Regarding `CC[n+]1c(C=CN2CCCc3ccccc32)ccc2ccccc21`, the viability index was 0.54. In the case of `CCN(CC)CCN(Cc1cc2c(C)cc(C)cc2[nH]c1=O)C(=S)NCCCN(C)C` it was 0.864; in that of `c1ccc2c(NCCc3c[nH]c4ccccc34)c3ccccc3nc2c1`, 0.527; in that of `O=C(Nc1ccc(-n2cccn2)cc1)C1CCN(Cc2nc3c(s2)CCCC3)CC1`, 0.942. In the case of `O=C(Nc1nc(-c2ccccn2)cs1)c1ccc(Oc2ccc(C(=O)Nc3nc(-c4ccccn4)cs3)cc2)cc1` it was 0.00826. The same measure for `Cc1ccc(S(=O)(=O)Oc2ccc(C=NN=C(N)N)cc2)cc1`: 0.452.

Compound `Cc1ccc(CNC(=N)Nc2nc(C)cc(C)n2)cc1` returned a viability index of 0.664. The same measure for `CCOC(=O)c1c(NC(=O)CSc2nnc(CNC(=O)c3cccc(OC)c3)n2C2CCCCC2)sc2c1CCCC2`: 0.78; for `N=c1c2c(n(Cc3ccccc3Cl)c3c1CCC3)CCCC2`: 0.688; for `Cc1cc(C)n(-c2ccc(NC(=O)C3CCN(Cc4cc(C)c(C)o4)CC3)cc2)n1`: 0.926. In the case of `CCc1ccc(-n2nnc(C(=O)Nc3ccccc3Cl)c2C)cc1` it was 1.04; in that of `CC1(C)CC(NC(=O)Cc2ccc(Cl)cc2)CC(C)(C)N1`, 0.928. The same measure for `O=C(Nc1ccc(-c2cc(-c3ccccc3)nc(-c3ccc(NC(=O)c4cccc([N+](=O)[O-])c4)cc3)n2)cc1)c1cccc([N+](=O)[O-])c1`: 0.693; for `CCCC1=NN(c2nc3ccccc3s2)C(=O)C1`: 1.21; for `Cc1ccc(CNC(=O)c2cc3sc(Cl)cc3n2C)cc1`: 0.884. `COc1ccc(C2CC(=O)C3=C(C2)NC(C)=C(C(=O)OC(C)C)C3c2ccc(F)cc2)cc1` (centres undefined): the viability index amounted to 0.472.

Compound `COc1cc(NC(=O)Cn2c3ccccc3c(=O)c3ccccc32)cc(OC)c1OC` registered a viability index of 0.317. The same measure for `CN(C)CCCNc1ncnc2c1[nH]c1ccccc12`: 1.12; for `CCCCCCCC(O)(c1ccc(OCC)cc1)C(CN1CCCCC1)c1ccccc1` (centres undefined): 1.33. `Nc1nonc1-n1nnc(C(=O)NN=Cc2cccc(Cl)c2)c1-c1ccccc1` yielded a viability index of 0.623.

As to `CCOC(=O)c1sc(=S)n(-c2ccc(N(C)C)cc2)c1N`, the viability index is 0.952. The same measure for `Oc1ccc2ccccc2c1CNc1nc2ccccc2[nH]1`: 0.865; for `CCN(CC)CCNc1ncnc2c1[nH]c1ccc(F)cc12`: 0.991; for `CC(C)c1ccc(NC(=O)c2ccc(NCCCN3CCN(c4cccc(Cl)c4)CC3)c([N+](=O)[O-])c2)cc1`: 0.643. The same measure for `O=c1c2cnn(-c3ccccc3)c2nc(-c2ccccc2F)n1-c1ccc(Br)cc1`: 0.894; for `COc1ccccc1-n1nnnc1SCC(=O)Nc1cc([N+](=O)[O-])ccc1C`: 0.935. In the case of `O=C(Nc1ccc(-c2nc3cc(NC(=O)c4ccc(Cl)cc4)ccc3[nH]2)cc1)c1ccc(Cl)cc1` it was 0.754. With `CCn1ncc(CN2CCC(C(=O)Nc3ccccc3-c3cccc(OC)c3)CC2)c1C`, the viability index stood at 0.75. The same measure for `CN1CCc2c(C#N)c(N3CCCC3)nc(N3CCCC3)c2C1`: 1.04; for `COc1cccc(C(=O)C[n+]2cc(-c3ccc(Cl)cc3)n3c2CCC3)c1`: 0.991. The same measure for `COc1cccc(CN2CCN(C3CCCC(C)C3)CC2)c1OC` (centres undefined): 1.07.

On to `CCOC(=O)C1=C(C)N=c2sc(=Cc3cc(Br)ccc3O)c(=O)n2C1c1ccccc1` (centres undefined), for which the viability index was determined as 0.736. In the case of `CCOC(=O)c1c(NC(=O)C(C)Sc2nnc(CNC(=O)c3ccco3)n2-c2cccc(C(F)(F)F)c2)sc2c1CCC2` (centres undefined) it was 0.751; in that of `O=C(NC1CC1)c1ccc(N2C(=O)C3C4c5ccccc5C(c5ccccc54)C3C2=O)cc1` (centres undefined), 0.632. The same measure for `COc1ccc(Nc2nc(NCc3ccco3)c3ccccc3n2)cc1`: 0.633; for `Cc1cc(C)nc(SCc2cc(=O)c(OC(=O)c3cccc([N+](=O)[O-])c3C)co2)n1`: 1.07; for `O=C1c2ccccc2-c2nnc(-c3ccc(Br)cc3)cc21`: 1.05. In the case of `COc1ccc2[nH]c3c(c2c1)CCNC3c1ccc(OC)c(CSc2nnc(-c3ccccc3)o2)c1` (centres undefined) it was 1.1; in that of `O=c1c2c([nH]c3ccccc13)CCCCCCCCCC2`, 0.651; in that of `CCC12C(=O)C(CC)(C(c3ccccc3)=C1c1ccccc1)C1C(=O)N(c3cccc(C(F)(F)F)c3)C(=O)C12` (centres undefined), 0.772.

With `O=C(Nc1ccc(Br)cc1C(=O)c1ccccc1)c1cc2nc(-c3cccs3)cc(C(F)(F)F)n2n1`, the viability index came to 0.653.

On to `COc1ccc(CN(Cc2cc3cccc(C)c3[nH]c2=O)C(=S)NC2CCCCC2)cc1`, for which the viability index amounted to 0.824. The same measure for `CCN(CC)c1nc(NN=Cc2cccc([N+](=O)[O-])c2OC)nc(Nc2ccccc2)n1`: 0.834; for `CC(C)(C)c1ccc2c(c1)CN(C1CCCCC1)CO2`: 0.332; for `N#Cc1c(N)nc(C(Cl)(Cl)Cl)nc1-c1ccccc1`: 1.27. `O=C(N1CCCCC1)n1nnc2ccccc21` yielded a viability index of 0.694. `Cc1ccc2nc3nc4c(C)cccc4c(N)c3cc2c1` yielded a viability index of 0.387.

For the compound `Cc1c(Cc2ccccc2)sc(N=Cc2ccc(Br)s2)c1C(N)=O`, the viability index was 1.02.

In turn, `CCOC(=O)C1=C(C)NC2=C(C(=O)C(C(=O)OCC)C(c3ccccc3OC)C2)C1c1cc(OC)c(OC)c(OC)c1` (centres undefined) displayed a viability index of 0.934.

Compound `CCCCN(CCCC)C(=O)Cn1ccc(=N)c2ccccc21` registered a viability index of 0.58.

Consider `Cc1c(CN2CCC(N3CCC(C(=O)NC4CC4)CC3)CC2)[nH]c2c(Cl)cccc12`, for which the viability index is 0.865. In the case of `CC(=O)N(C1=C(N2CCCCC2)C(=O)c2ccccc2C1=O)c1cccc(F)c1` it was 0.833; in that of `CSc1nc(SC)c2c3c(sc2n1)CN(C)CC3`, 0.78.

In the case of `COc1ccccc1N1C(=N)SC(=Cc2ccc(OCc3ccccc3F)cc2)C1=O`, the viability index is 0.779. The same measure for `COC(=O)c1c(-c2c(Cl)cccc2Cl)noc1NC(=O)NN1CCCCC1`: 1.1. The same measure for `NC(=O)c1ccc2[nH]c3c(c2c1)CCCC3`: 0.789. In the case of `CCOC(=O)C1CCN(C(c2cc3cc(OC)c(OC)cc3[nH]c2=O)c2nnnn2Cc2ccccc2)CC1` (centres undefined) it was 0.878. Turning to `CC(=O)N1CCOC1C(C)(C)CC=C(C)CCC=C(C)C` (centres undefined), the viability index was 0.822.

For the compound `Nc1ccc(C(=O)NN=Cc2cccc([N+](=O)[O-])c2)cc1`, the viability index stood at 0.885. In the case of `CC(=O)Nc1c(C)cc(Cl)cc1Cl` it was 0.859; in that of `COc1ccc2[nH]c(=O)c(CN(C(=S)Nc3ccccc3OC)C3CCCC3)cc2c1`, 0.642; in that of `Nc1ccc(-c2nc3cc(Oc4ccc5[nH]c(-c6ccc(N)cc6)nc5c4)ccc3[nH]2)cc1`, 0.811.

With `CCSc1ccc2ccccc2[n+]1CC`, the viability index came out at 0.864.

In turn, `Cc1ccc(C2CC(C(F)(F)F)n3ncc(C(=O)Nc4ccc(OC(F)(F)F)cc4)c3N2)cc1` (centres undefined) had a viability index of 0.634. The same measure for `COc1cccc(-c2ccc(O)c(CN3CCCCC3)c2)n1`: 1.11; for `CCN1C(=Cc2sc3ccc(O)cc3[n+]2CC)C=Cc2cc(C)ccc21`: 0.577.

Regarding `COc1ccc2c(c1)-c1c(ssc1=S)C(C)(C)N2C(=O)c1ccccc1F`, the viability index was 0.898. In the case of `COc1cc2nc(NCC3CCCO3)n3nc(-c4ccccc4)nc3c2cc1OC` (centres undefined) it was 0.635; in that of `CC(C)CC(NC(=O)OC(C)(C)C)C(=O)NC(Cc1ccccc1)C(=O)OCc1ccccc1` (centres undefined), 0.797. In the case of `CC(=NNc1nc2ccccc2s1)c1ccc([N+](=O)[O-])cc1` it was 0.933; in that of `CCN1C(=Cc2ccc3cc(OC)ccc3[n+]2CC)Sc2cc(C)ccc21`, 0.29. The same measure for `Cc1cc(Nc2ccc(C)c(F)c2)n2nc(C)nc2n1`: 0.9; for `Cc1ccc(NC(=O)N(CCCN(C)C)Cc2cc3cc4c(cc3[nH]c2=O)OCO4)cc1`: 0.822. `CC(C)(C)c1ccc(-c2nc(C34CC5CC(CC(C5)C3)C4)cs2)cc1` yielded a viability index of 0.942. Turning to `COc1ccc([N+](=O)[O-])cc1N(CC1CO1)S(=O)(=O)c1ccc(C)cc1` (centres undefined), the viability index was 0.717. The same measure for `COc1ccc(C2CC(=O)C3=C(C2)NC(C)=C(C(=O)OC2CCCC2)C3c2ccc(F)cc2)cc1` (centres undefined): 0.444. In the case of `COc1ccc(CN(C)C(C)C)cc1OC1CCN(C(=O)C2CCC2)CC1` it was 0.875; in that of `CCOC(=O)C1CCCN(C(=O)c2c(C)oc3c2C(=O)c2ccccc2C3=O)C1` (centres undefined), 0.726. With `CCN1C(=O)c2ccccc2Sc2ccc(NC(=O)NCCCOC(C)C)cc21`, the viability index was 1.02.

In turn, `c1ccc(-c2nc3cc4nc(-c5ccccc5)[nH]c4cc3[nH]2)cc1` gave a viability index of 1.15. In the case of `N#Cc1c2c(c(NCc3ccccn3)n3c1nc1ccccc13)CCCC2` it was 0.812.

`CCOc1ccc(-c2nc(NC(=O)CS(=O)(=O)c3ccccc3)sc2C)cc1` returned a viability index of 0.512. The compound `COc1ccc(N2C(=O)C3C(C2=O)C2(c4ccccc4)C(=O)C3(c3ccccc3)C(c3ccc4c(c3)OCO4)=C2c2ccc3c(c2)OCO3)c([N+](=O)[O-])c1` (centres undefined) displayed a viability index of 0.776. In the case of `O=S(=O)(Nc1ccc(F)cc1)N1CCCCCC1` it was 0.882; in that of `CCn1c(C=CN(C)c2ccccc2)[n+](CC)c2cc(Cl)ccc21`, 1; in that of `O=C1NCCN1C(=O)C(c1ccccc1)c1ccccc1`, 1.08.

The record behind these values is the supplement of paper PMC4723716.
